Results are given in words; binding and its absence hold for the method and conditions named. Binding seen in cells or lysates may run through a third protein. Some results given as binding are weak or reduced against the parent protein; the word gives no strength. For some of these results: Sequences can lack the tags named with a protein.
Key:
[1] = biological target: T1, RNF8 (overexpressed in GSC TS543) (human) (UniProt O76064); test: co-IP; RNF8 IP from RNF8 overexpressing GSC TS543 lysates; Western blot of MAD2
T1 sequence: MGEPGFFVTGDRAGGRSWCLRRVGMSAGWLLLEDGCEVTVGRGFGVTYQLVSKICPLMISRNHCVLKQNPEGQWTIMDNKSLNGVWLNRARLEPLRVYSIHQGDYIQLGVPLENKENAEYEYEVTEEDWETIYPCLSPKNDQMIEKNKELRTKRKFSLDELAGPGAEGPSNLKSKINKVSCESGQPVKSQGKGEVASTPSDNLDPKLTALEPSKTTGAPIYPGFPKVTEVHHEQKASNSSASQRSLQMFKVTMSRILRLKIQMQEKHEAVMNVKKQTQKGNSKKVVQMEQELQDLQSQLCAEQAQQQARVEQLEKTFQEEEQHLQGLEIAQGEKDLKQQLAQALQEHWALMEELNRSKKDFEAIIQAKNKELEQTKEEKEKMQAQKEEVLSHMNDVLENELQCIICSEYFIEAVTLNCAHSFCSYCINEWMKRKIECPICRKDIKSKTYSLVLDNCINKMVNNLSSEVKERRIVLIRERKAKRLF

Sequences of proteins named here, by UniProt entry; tags and fusion partners are left off.
UniProt Q13257: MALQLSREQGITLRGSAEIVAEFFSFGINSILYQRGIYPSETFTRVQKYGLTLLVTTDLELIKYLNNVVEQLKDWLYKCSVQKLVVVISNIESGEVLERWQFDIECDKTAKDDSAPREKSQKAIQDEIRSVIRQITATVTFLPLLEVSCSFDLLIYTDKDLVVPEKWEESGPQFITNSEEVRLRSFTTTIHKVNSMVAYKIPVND

myc-BirA*-RNF8 (human) = biological target: T2, myc-BirA*-RNF8 (human) (UniProt O76064); test: co-IP; myc IP from HEK293T transfected with BirA*-RNF8 or GFP; Western blot of MAD2 and p31^comet
T2 sequence: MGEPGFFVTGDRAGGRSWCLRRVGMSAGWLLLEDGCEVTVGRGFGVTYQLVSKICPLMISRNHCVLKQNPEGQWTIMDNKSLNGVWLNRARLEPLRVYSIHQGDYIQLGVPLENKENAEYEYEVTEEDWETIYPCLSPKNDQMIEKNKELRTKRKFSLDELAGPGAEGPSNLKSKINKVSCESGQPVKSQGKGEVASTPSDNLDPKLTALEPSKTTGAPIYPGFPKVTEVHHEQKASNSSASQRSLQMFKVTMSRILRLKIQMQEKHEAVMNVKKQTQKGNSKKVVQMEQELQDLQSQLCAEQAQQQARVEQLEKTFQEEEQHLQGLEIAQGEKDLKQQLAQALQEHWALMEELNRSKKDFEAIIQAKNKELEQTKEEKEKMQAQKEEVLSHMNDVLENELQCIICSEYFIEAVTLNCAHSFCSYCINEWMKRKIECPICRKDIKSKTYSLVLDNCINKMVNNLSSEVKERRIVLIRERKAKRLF

[2] = biological target: T3, myc-tagged *RING (RNF8^C403S) (human) (UniProt O76064); test: co-IP; myc IP from HEK293T lysates overexpressing myc-tagged RNF8 or its mutants; Western blot of endogenous MAD2 or of co-expressed flag-MAD2
T3 sequence: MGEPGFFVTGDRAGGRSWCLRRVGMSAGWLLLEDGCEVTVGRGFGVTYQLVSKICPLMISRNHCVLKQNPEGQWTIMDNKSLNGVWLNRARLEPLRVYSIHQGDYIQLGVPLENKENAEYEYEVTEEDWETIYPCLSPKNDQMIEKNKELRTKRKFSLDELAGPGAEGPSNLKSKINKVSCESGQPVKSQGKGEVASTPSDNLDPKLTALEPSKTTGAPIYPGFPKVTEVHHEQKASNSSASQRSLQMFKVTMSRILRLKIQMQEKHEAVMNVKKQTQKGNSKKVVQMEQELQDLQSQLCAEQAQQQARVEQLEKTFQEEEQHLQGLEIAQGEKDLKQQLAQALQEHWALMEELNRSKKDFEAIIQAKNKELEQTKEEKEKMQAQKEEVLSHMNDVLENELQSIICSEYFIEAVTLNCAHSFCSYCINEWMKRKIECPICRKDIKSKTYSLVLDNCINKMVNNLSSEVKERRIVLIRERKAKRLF

[3] = biological target: T4, myc-tagged *FHA (RNF8^R42A) (human) (UniProt O76064); test: as above
T4 sequence: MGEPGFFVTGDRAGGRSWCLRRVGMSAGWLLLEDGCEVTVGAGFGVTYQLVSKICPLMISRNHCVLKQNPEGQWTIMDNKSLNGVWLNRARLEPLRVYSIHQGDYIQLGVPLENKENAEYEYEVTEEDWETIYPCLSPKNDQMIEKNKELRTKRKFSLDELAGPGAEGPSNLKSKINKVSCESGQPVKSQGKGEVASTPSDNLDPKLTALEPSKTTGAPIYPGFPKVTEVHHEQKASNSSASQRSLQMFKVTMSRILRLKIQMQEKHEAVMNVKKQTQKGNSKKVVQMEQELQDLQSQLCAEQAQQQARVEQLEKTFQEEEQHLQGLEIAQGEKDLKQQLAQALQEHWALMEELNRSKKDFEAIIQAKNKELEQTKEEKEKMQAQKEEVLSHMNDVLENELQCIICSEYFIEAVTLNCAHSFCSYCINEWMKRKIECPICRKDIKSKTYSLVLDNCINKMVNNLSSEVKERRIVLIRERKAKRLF

myc-tagged RNF8 (human) [4] = biological target: T5, myc-tagged RNF8 (human) (UniProt O76064); test: as above
T5 sequence: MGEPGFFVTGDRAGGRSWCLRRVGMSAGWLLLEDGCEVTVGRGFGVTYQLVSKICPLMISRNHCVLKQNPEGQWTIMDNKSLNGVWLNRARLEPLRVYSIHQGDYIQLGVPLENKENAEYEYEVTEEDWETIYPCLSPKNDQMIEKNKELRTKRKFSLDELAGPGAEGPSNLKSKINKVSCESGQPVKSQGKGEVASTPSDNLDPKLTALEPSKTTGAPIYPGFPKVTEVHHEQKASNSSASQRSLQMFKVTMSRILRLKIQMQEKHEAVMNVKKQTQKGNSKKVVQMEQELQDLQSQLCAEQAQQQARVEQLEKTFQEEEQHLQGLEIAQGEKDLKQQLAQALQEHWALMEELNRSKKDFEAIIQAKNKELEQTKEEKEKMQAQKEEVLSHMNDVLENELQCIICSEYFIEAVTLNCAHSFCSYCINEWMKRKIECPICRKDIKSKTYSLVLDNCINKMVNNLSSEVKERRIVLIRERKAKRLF

myc-tagged RNF8 (human) [5] = biological target: T5, myc-tagged RNF8 (human); test: condition: only with co-expression of flag-p31^comet; co-IP; myc IP from HEK293T lysates overexpressing RNF8-myc together with flag-p31^comet; Western blot of endogenous MAD2
[6] = biological target: T6, p31^comet (human (endogenous in HEK293T)) (UniProt Q15013); test: co-IP; p31^comet IP from HEK293T lysates transfected with different amounts of RNF8-myc plasmid; Western blot of endogenous MAD2
T6 sequence: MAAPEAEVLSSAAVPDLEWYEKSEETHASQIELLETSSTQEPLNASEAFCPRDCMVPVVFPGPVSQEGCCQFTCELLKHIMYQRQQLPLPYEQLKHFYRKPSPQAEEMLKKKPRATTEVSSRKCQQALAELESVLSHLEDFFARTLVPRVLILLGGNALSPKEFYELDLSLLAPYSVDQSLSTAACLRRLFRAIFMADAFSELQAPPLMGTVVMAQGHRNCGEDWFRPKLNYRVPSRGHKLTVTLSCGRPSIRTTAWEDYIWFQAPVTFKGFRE

flag-MAD2 = flag-MAD2 (UniProt Q13257); test: co-IP; reverse co-IP: flag IP of flag-tagged MAD2 from cells with myc-tagged RNF8, *FHA or *RING (Supplementary Fig. S2A)
[7] = biological target: MAD2 (human (endogenous in HEK293T)) (UniProt Q13257); test: co-IP; MAD2 IP from HEK293T lysates, endogenous proteins, with or without 200 ng/ml nocodazole (16 h); Western blot of RNF8
[8] = biological target: MAD2 (human (endogenous in HEK293T)) (UniProt Q13257); test: co-IP; myc IP from HEK293T lysates overexpressing RNF8-myc together with flag-p31^comet; Western blot of endogenous MAD2

Molecule: MAD2 (endogenous, GSC TS543) (from UniProt Q13257 1-205)
- binding [1]: binds

Molecule: MAD2 (from UniProt Q13257 1-205)
- binding (myc-BirA*-RNF8 (human)): binds
- binding [2]: no binding
- binding [3]: binds
- binding (myc-tagged RNF8 (human) [4]): binds
- binding (myc-tagged RNF8 (human) [5]): no binding
- binding [6]: binds

Molecule: flag-MAD2 (from UniProt Q13257 1-205)
- binding (myc-tagged RNF8 (human) [4]): binds

B1: myc-tagged RNF8 (protein, UniProt O76064-1 1-485)
chain: MGEPGFFVTGDRAGGRSWCLRRVGMSAGWLLLEDGCEVTVGRGFGVTYQLVSKICPLMISRNHCVLKQNPEGQWTIMDNKSLNGVWLNRARLEPLRVYSIHQGDYIQLGVPLENKENAEYEYEVTEEDWETIYPCLSPKNDQMIEKNKELRTKRKFSLDELAGPGAEGPSNLKSKINKVSCESGQPVKSQGKGEVASTPSDNLDPKLTALEPSKTTGAPIYPGFPKVTEVHHEQKASNSSASQRSLQMFKVTMSRILRLKIQMQEKHEAVMNVKKQTQKGNSKKVVQMEQELQDLQSQLCAEQAQQQARVEQLEKTFQEEEQHLQGLEIAQGEKDLKQQLAQALQEHWALMEELNRSKKDFEAIIQAKNKELEQTKEEKEKMQAQKEEVLSHMNDVLENELQCIICSEYFIEAVTLNCAHSFCSYCINEWMKRKIECPICRKDIKSKTYSLVLDNCINKMVNNLSSEVKERRIVLIRERKAKRLF
- binding (flag-MAD2): binds

B2: myc-tagged *FHA (RNF8^R42A) (protein, UniProt O76064-1 1-485)
chain: MGEPGFFVTGDRAGGRSWCLRRVGMSAGWLLLEDGCEVTVGAGFGVTYQLVSKICPLMISRNHCVLKQNPEGQWTIMDNKSLNGVWLNRARLEPLRVYSIHQGDYIQLGVPLENKENAEYEYEVTEEDWETIYPCLSPKNDQMIEKNKELRTKRKFSLDELAGPGAEGPSNLKSKINKVSCESGQPVKSQGKGEVASTPSDNLDPKLTALEPSKTTGAPIYPGFPKVTEVHHEQKASNSSASQRSLQMFKVTMSRILRLKIQMQEKHEAVMNVKKQTQKGNSKKVVQMEQELQDLQSQLCAEQAQQQARVEQLEKTFQEEEQHLQGLEIAQGEKDLKQQLAQALQEHWALMEELNRSKKDFEAIIQAKNKELEQTKEEKEKMQAQKEEVLSHMNDVLENELQCIICSEYFIEAVTLNCAHSFCSYCINEWMKRKIECPICRKDIKSKTYSLVLDNCINKMVNNLSSEVKERRIVLIRERKAKRLF
- binding (flag-MAD2): binds

B3: RNF8 (endogenous) (protein, UniProt O76064-1 1-485)
chain: MGEPGFFVTGDRAGGRSWCLRRVGMSAGWLLLEDGCEVTVGRGFGVTYQLVSKICPLMISRNHCVLKQNPEGQWTIMDNKSLNGVWLNRARLEPLRVYSIHQGDYIQLGVPLENKENAEYEYEVTEEDWETIYPCLSPKNDQMIEKNKELRTKRKFSLDELAGPGAEGPSNLKSKINKVSCESGQPVKSQGKGEVASTPSDNLDPKLTALEPSKTTGAPIYPGFPKVTEVHHEQKASNSSASQRSLQMFKVTMSRILRLKIQMQEKHEAVMNVKKQTQKGNSKKVVQMEQELQDLQSQLCAEQAQQQARVEQLEKTFQEEEQHLQGLEIAQGEKDLKQQLAQALQEHWALMEELNRSKKDFEAIIQAKNKELEQTKEEKEKMQAQKEEVLSHMNDVLENELQCIICSEYFIEAVTLNCAHSFCSYCINEWMKRKIECPICRKDIKSKTYSLVLDNCINKMVNNLSSEVKERRIVLIRERKAKRLF
- binding [7]: binds

B4: flag-p31^comet (protein, UniProt Q15013 1-274)
chain: MAAPEAEVLSSAAVPDLEWYEKSEETHASQIELLETSSTQEPLNASEAFCPRDCMVPVVFPGPVSQEGCCQFTCELLKHIMYQRQQLPLPYEQLKHFYRKPSPQAEEMLKKKPRATTEVSSRKCQQALAELESVLSHLEDFFARTLVPRVLILLGGNALSPKEFYELDLSLLAPYSVDQSLSTAACLRRLFRAIFMADAFSELQAPPLMGTVVMAQGHRNCGEDWFRPKLNYRVPSRGHKLTVTLSCGRPSIRTTAWEDYIWFQAPVTFKGFRE
- binding [8]: binds

B5: myc-tagged *RING (RNF8^C403S) (protein, UniProt O76064-1 1-485)
chain: MGEPGFFVTGDRAGGRSWCLRRVGMSAGWLLLEDGCEVTVGRGFGVTYQLVSKICPLMISRNHCVLKQNPEGQWTIMDNKSLNGVWLNRARLEPLRVYSIHQGDYIQLGVPLENKENAEYEYEVTEEDWETIYPCLSPKNDQMIEKNKELRTKRKFSLDELAGPGAEGPSNLKSKINKVSCESGQPVKSQGKGEVASTPSDNLDPKLTALEPSKTTGAPIYPGFPKVTEVHHEQKASNSSASQRSLQMFKVTMSRILRLKIQMQEKHEAVMNVKKQTQKGNSKKVVQMEQELQDLQSQLCAEQAQQQARVEQLEKTFQEEEQHLQGLEIAQGEKDLKQQLAQALQEHWALMEELNRSKKDFEAIIQAKNKELEQTKEEKEKMQAQKEEVLSHMNDVLENELQSIICSEYFIEAVTLNCAHSFCSYCINEWMKRKIECPICRKDIKSKTYSLVLDNCINKMVNNLSSEVKERRIVLIRERKAKRLF
- binding (flag-MAD2): no binding

From paper PMC10406836
